Laboratory results reported in paper PMC7819943, “Rice protein-binding microarrays: a tool to detect cis-acting elements near promoter regions in rice”.
The other results are listed elsewhere or left out.

target: T1, OsWOX13 (Oryza sativa, UniProt Q5QMM3 1-267); assay: protein-binding microarray (RPBM); PBS, 2% BSA, 51.3 ng/ul salmon testes DNA, 50 uM zinc acetate, 200 nM TF, 25 C, 1 h; high values mean tight binding; conditions: protein: recombinant; tags: N-terminal polyhistidine and DsRed monomer fusion (pET32a); label: CyDye5-dUTP incorporated in the synthesized complementary strand; 3' TTTTT single-stranded linker to array surface; dsDNA, one strand shown
T1 sequence: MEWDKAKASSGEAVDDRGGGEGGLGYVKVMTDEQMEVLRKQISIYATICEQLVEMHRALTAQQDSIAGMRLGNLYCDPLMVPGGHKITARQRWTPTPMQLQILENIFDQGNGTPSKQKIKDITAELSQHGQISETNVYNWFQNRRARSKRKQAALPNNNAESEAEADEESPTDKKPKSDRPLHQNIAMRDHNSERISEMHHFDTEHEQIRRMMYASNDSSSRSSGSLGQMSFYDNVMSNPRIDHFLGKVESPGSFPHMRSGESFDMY
Summary of the method: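 For the binding signal, per-feature fluorescence intensity was read in arbitrary units on an Axon 4000B scanner. Before scanning, a 2% BSA-blocked custom Agilent array made double-stranded with Cy5-dUTP was washed after 1 h at 25 °C with 200 nM protein and 50 µM zinc acetate. The proteins were Ni–NTA-purified transcription factors with N-terminal polyhistidine and DsRed fusions, expressed in E. coli BL21-CodonPlus.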

Row | Sequence | binding signal
1 | GCTAATCAAATCCATCATGAGAGACACGCTCCGCTGGACTCGGAGTCACCTAGTGCAG | 8880 fluorescence intensity (a.u.)
2 | CTTTGATCAAACTTCAAACACCCACTATCATCCGTCATCCCGGAGTCACCTAGTGCAG | 3950 fluorescence intensity (a.u.)
3 | ATATAAATTAAGATTTTGAGGATACTGTTATTGAGATGGGCGGAGTCACCTAGTGCAG | 9740 fluorescence intensity (a.u.)
4 | GTGGTTGATTTGTTAGAGGTGGAGGCAGGTATTGTGGTGGCGGAGTCACCTAGTGCAG | 33400 fluorescence intensity (a.u.)
5 | TTGATTGCAGAGGATCCTGATCCGAAAATAACACACCCTACGGAGTCACCTAGTGCAG | 10600 fluorescence intensity (a.u.)
6 | TGAAAGCATCCGGTAATTGGCAACTTTGAATGCATCGTTTCGGAGTCACCTAGTGCAG | 9690 fluorescence intensity (a.u.)
7 | TAAAATTTATTCGAATTCTATCAACTTTCGTCGGTAACCGCGGAGTCACCTAGTGCAG | 5270 fluorescence intensity (a.u.)
8 | ATGCTTATTATCTCAATTAAAATCTGTCATTATGGGTGTGCGGAGTCACCTAGTGCAG | 9600 fluorescence intensity (a.u.)
9 | TATTAAGCTAATTAGTCATCTAATTAGCTTTTGTAAGGCCCGGAGTCACCTAGTGCAG | 31000 fluorescence intensity (a.u.)
10 | CAACTAATTTTAGGTAAGTTATTTTCACTTTGAGCTGGAGCGGAGTCACCTAGTGCAG | 18000 fluorescence intensity (a.u.)
11 | CCATTAATGACGAGAGGTTGGTGTCGTCTCACTCATTTATCGGAGTCACCTAGTGCAG | 5490 fluorescence intensity (a.u.)
12 | AAGTTAAACTATTTTAAATTTGATTAAGTTTATGTACAAACGGAGTCACCTAGTGCAG | 12700 fluorescence intensity (a.u.)
13 | AAGAGGGTGGGTTGTTGGGGAGAGGGGAGGGAGGAGGATTCGGAGTCACCTAGTGCAG | 6960 fluorescence intensity (a.u.)
14 | TTGTAAATTACCTGCAAGGAAGAATTAACCAAGATGTCTTCGGAGTCACCTAGTGCAG | 5040 fluorescence intensity (a.u.)
15 | TGACTGGATTTAGATAGACAAAGTGGAAGAATCGGATTGGCGGAGTCACCTAGTGCAG | 9670 fluorescence intensity (a.u.)
16 | TATATGATTATTAATTAGCCTTCCTGGGCAGTACCAATCTCGGAGTCACCTAGTGCAG | 35000 fluorescence intensity (a.u.)
17 | TTATCATTTGTTATCATTGATGAATGAGAAGCAGCAAAGTCGGAGTCACCTAGTGCAG | 3610 fluorescence intensity (a.u.)
18 | AGTCTAATAACAAAACAAATTATAGATTCCGCACGTAAATCGGAGTCACCTAGTGCAG | 4800 fluorescence intensity (a.u.)
19 | CAAATCATGACTAGATTAGTAACCAAAAGCCATTGCAGCACGGAGTCACCTAGTGCAG | 15000 fluorescence intensity (a.u.)
20 | TAGATAATAGATCATATTGATTTCTACTTTTATAGTATAGCGGAGTCACCTAGTGCAG | 21600 fluorescence intensity (a.u.)
21 | AGGAATTGAATACAAATGATAGGTTGTGGTTCCGTCACGACGGAGTCACCTAGTGCAG | 16700 fluorescence intensity (a.u.)
22 | ATAACACTGACAGGTAGATGTTACTCAAGACATTTCCGCACGGAGTCACCTAGTGCAG | 13300 fluorescence intensity (a.u.)
23 | CTTGGATTAATTTACGCCATAAAATTCCACAGAAATAACTCGGAGTCACCTAGTGCAG | 17100 fluorescence intensity (a.u.)
24 | CTAAACTAATAAAGAGAGATTTACGTATGCATAGTATTCTCGGAGTCACCTAGTGCAG | 5730 fluorescence intensity (a.u.)
25 | AGAGTTAATTTGGAAAGGGATAGTTTTGAGTGCTTATGGGCGGAGTCACCTAGTGCAG | 12600 fluorescence intensity (a.u.)
26 | AATTTGATTGATTTTACTCTCGAGCCAATTGAGATGTCTGCGGAGTCACCTAGTGCAG | 64800 fluorescence intensity (a.u.)
27 | TGTAAGGGCAAGCTAATTGACTGACAGCTTTTAGTTCACACGGAGTCACCTAGTGCAG | 21100 fluorescence intensity (a.u.)

Row | Sequence | binding signal
28 | CCAATATATTTGTCAGTTTCAATTTACAGTTTTACACGTTCGGAGTCACCTAGTGCAG | 4050 fluorescence intensity (a.u.)
29 | CTGATTGCGCGCGCGCCTCCCTGCGCGGCTGATCGCGTATCGGAGTCACCTAGTGCAG | 5260 fluorescence intensity (a.u.)
30 | CATGGTGAATTGGTGATTTTATAATGATGCTAAGCTTTGACGGAGTCACCTAGTGCAG | 4860 fluorescence intensity (a.u.)
31 | TCTCAATTTTCGTAGATAATGAAAATGGTTTACACAACGTCGGAGTCACCTAGTGCAG | 5050 fluorescence intensity (a.u.)
32 | TGGTGGAAGGGGATTGATGATGGGAAGGACAGCCACAGGGCGGAGTCACCTAGTGCAG | 7220 fluorescence intensity (a.u.)
33 | GCCTAGCTAATCAATTAACTTAACCTGCCTCGCCTCTGCCCGGAGTCACCTAGTGCAG | 26300 fluorescence intensity (a.u.)
34 | GCAACAAATTTCTCTTGATTGATTTGATCTAACAACAGAACGGAGTCACCTAGTGCAG | 37800 fluorescence intensity (a.u.)
35 | TTTAATCTGTTATTAGTCATCCATCACAATCCAAGCAAGTCGGAGTCACCTAGTGCAG | 5200 fluorescence intensity (a.u.)
36 | ACAAATTGCCAACTCATGAAAGTGATCGATGATGGGCTTACGGAGTCACCTAGTGCAG | 15700 fluorescence intensity (a.u.)
37 | AATACTAATTATAAGAAAATTAAATAAAATAGATGATGAACGGAGTCACCTAGTGCAG | 17800 fluorescence intensity (a.u.)
38 | ATGATATATATTGATAAGGTATACCCTCACGTATACGGTTCGGAGTCACCTAGTGCAG | 6790 fluorescence intensity (a.u.)
39 | TAAACTATAATTAGATTTTCTTTTGGACAAGGAGATTAGACGGAGTCACCTAGTGCAG | 17200 fluorescence intensity (a.u.)
40 | ATGGCTAATTTCAGATTAATAAGTGAAATATTACCATGACCGGAGTCACCTAGTGCAG | 5970 fluorescence intensity (a.u.)
41 | TTATAATGGCCACTAATTTACTGGACAGCTGTTATACTTCCGGAGTCACCTAGTGCAG | 20200 fluorescence intensity (a.u.)
42 | CCTTGTAATTTCTTCCTCCTGACTCCACCTGCAACATTGCCGGAGTCACCTAGTGCAG | 6670 fluorescence intensity (a.u.)
43 | TACCAAATTGCTCTTGCTTATAGCCATATTTGTGTGTGTACGGAGTCACCTAGTGCAG | 3150 fluorescence intensity (a.u.)
44 | GATGAATCATTAGCACATAATTAATTAAGTATTAATTATTCGGAGTCACCTAGTGCAG | 15700 fluorescence intensity (a.u.)
45 | AATCAATCTAGTTTTAATCCTAGAGTATCTAAAGTAGTGACGGAGTCACCTAGTGCAG | 12400 fluorescence intensity (a.u.)
46 | CACAATTAATGCATGCGTTTAGAAAACAAAATGGTAACACCGGAGTCACCTAGTGCAG | 3700 fluorescence intensity (a.u.)
47 | GTTTTGAAGATTTAATTGCAATGAATTTAATGGTGTAATCCGGAGTCACCTAGTGCAG | 12100 fluorescence intensity (a.u.)
48 | CCCTCCAATCAAATTAACCTCCATATCTCTAGCAATCTGCCGGAGTCACCTAGTGCAG | 29800 fluorescence intensity (a.u.)
49 | CAATTCAATCTGCCAAAACTGAAATTTTGACCTTGTTTTACGGAGTCACCTAGTGCAG | 7360 fluorescence intensity (a.u.)
50 | AAGTGGTTAACGAACTAATCAGGTTGGCATTGCAACGTCACGGAGTCACCTAGTGCAG | 3290 fluorescence intensity (a.u.)
51 | ATTTAATTATTTTCCTACAAGTCGAAGGAGCTCGTATAGGCGGAGTCACCTAGTGCAG | 29700 fluorescence intensity (a.u.)
52 | TAGCCAAACAGGAACAAATTGATCCACGATGGATCAATGGCGGAGTCACCTAGTGCAG | 12000 fluorescence intensity (a.u.)
53 | GTTTCTAGGTAGATTTATAATAAATTTACATACATATTTTCGGAGTCACCTAGTGCAG | 4570 fluorescence intensity (a.u.)
54 | CTGGATGATTGGATTGATTATGGACAGATTTAAATTTGCTCGGAGTCACCTAGTGCAG | 65500 fluorescence intensity (a.u.)
